Assay results taken from paper PMC4336329 (PLoS ONE, 2015).
Screen size: about 310,000 compounds; about 14,000 (4.5%) showed an effect of 50% or more. Effects have a minus sign here. This is one part of the list.

biological target: human ether-à-go-go-related gene (hERG) potassium channel (human, UniProt Q12809); assay: primary screen, population patch clamp on CHO cells stably expressing hERG
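Also: peak tail current of the secondary pulse compared with the same well before compound.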

human ether-à-go-go-related gene (hERG) potassium channel, sequence (Q12809 whole entry, looked up): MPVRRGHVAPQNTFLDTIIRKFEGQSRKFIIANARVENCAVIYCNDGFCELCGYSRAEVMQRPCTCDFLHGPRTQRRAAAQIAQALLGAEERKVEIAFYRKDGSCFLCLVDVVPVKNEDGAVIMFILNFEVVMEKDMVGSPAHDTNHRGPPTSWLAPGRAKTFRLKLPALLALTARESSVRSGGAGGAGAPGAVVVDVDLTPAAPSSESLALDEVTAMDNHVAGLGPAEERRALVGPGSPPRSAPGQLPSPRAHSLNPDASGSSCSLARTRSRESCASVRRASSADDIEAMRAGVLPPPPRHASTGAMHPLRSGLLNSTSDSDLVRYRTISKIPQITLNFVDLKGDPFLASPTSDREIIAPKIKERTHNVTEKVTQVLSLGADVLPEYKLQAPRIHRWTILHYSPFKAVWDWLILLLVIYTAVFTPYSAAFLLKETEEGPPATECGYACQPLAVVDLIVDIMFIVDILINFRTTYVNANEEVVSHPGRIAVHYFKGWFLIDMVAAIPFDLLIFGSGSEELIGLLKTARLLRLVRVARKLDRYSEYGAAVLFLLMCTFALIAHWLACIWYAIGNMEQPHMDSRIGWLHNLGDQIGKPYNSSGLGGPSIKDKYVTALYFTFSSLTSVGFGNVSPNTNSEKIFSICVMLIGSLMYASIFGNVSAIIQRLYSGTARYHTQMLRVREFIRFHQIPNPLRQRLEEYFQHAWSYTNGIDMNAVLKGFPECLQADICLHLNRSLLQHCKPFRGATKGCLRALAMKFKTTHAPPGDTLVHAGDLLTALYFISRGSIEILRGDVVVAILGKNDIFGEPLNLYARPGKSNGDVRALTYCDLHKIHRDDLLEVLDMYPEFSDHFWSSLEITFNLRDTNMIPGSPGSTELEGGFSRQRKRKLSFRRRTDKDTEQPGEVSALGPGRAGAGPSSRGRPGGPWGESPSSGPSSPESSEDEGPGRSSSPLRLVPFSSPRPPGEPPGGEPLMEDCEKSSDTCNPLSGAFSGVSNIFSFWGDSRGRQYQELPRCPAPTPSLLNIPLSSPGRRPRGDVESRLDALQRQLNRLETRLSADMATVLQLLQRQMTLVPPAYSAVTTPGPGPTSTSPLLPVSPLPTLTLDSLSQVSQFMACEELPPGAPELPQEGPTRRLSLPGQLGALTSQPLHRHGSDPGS

Row | SMILES | hERG current change (%, negative = inhibition) at 10uM [%]
1 | N#C/C(=C\c1cccnc1)c1ccccn1 | 9.17
2 | CCOc1cc(N2CCOCC2)c(OCC)cc1NC(=O)COC(=O)COc1ccc(C#N)cc1 | 10.5
3 | CCCc1[nH]nc2c1C(c1ccncc1)C(C#N)=C(N)O2 (centres unmarked) | -4.11
4 | COc1ccc(/C=C/C(=O)NC(=S)N2CCOCC2)cc1 | 1.48
5 | CSc1ncc(/C=C2/C(=O)NC(=O)N(C)C2=O)cn1 | 18.8
6 | COc1cc(Cl)c(C)cc1NC(=O)COC(=O)c1cnc(C)cn1 | 4.05
7 | COc1cc(S(=O)(=O)N(Cc2ccco2)C2CCCC2)ccc1-n1cnnn1 | -12.1
8 | Cc1cc(C)cc(NC(=O)CCNS(=O)(=O)c2cc(Br)cnc2N)c1 | 17.2
9 | O=C(CCNC(=O)N1CCn2c1nc1ccccc12)NCc1ccccc1Cl | -16.2
10 | Cc1cc(NCCN2CCOCC2)n2nc(C)c(-c3ccc(Cl)cc3)c2n1 | -50.2
11 | CN(C)C(=O)Oc1ccc(Cl)c2cccnc12 | 0.409
12 | Fc1cccc(Nc2nc3ccccc3n3nnnc23)c1 | 6.86
13 | CCOC(=O)c1sc(NC(=O)C2C3C=CC(C3)C2C(=O)O)nc1C (centres unmarked) | 16.2
14 | COc1ccc(-c2csc(N3CCSCC3)n2)cc1 | 18.1
15 | COc1cc(C(=O)N/C(=C\c2cn(C)c3ccccc23)C(=O)NCCCN2CCOCC2)cc(OC)c1OC | 2.72
16 | O=C(CCN1CCOCC1)Nc1ccc(F)cc1 | -10.5
17 | CCn1c(Cc2cccn2C)nnc1SCC(=O)c1ccc(C)cc1 | 1.17
18 | COC(=O)c1c(-c2ccc(OC)cc2)oc2ccccc12 | 8.9
19 | CCOC(=O)C1=C(COc2ccccc2)NC(=O)NC1c1ccc(Br)cc1 (centres unmarked) | 10.4

Row | SMILES | hERG current change (%, negative = inhibition) at 10uM [%]
20 | O=C(COc1ccccc1-c1ccccc1)N/N=C/c1ccccn1 | -4.97
21 | CC(Sc1nnc(Cc2cccs2)n1C1CCCCC1)C(=O)N1CCc2ccccc21 (centres unmarked) | -31.2
22 | COc1cc(NC(=O)COC(=O)/C=C/c2ccc(O)c(OC)c2)cc(OC)c1 | 14.2
23 | c1ccc(-c2csc(Nc3cccnc3)n2)cc1 | 3.51
24 | N#CC1=C(N)N(c2ncn[nH]2)C2=C(C(=O)CCC2)C1c1ccccc1 (centres unmarked) | 19.3
25 | O=C(COc1ccc(-n2ccnc2)cc1)Nc1cccc(F)c1 | -54.6
26 | Cc1cc(F)ccc1S(=O)(=O)N1CCCOC1CNC(=O)C(=O)NCc1ccc2c(c1)OCO2 (centres unmarked) | -26.9
27 | O=C(CCSc1nc2cc(Cl)ccc2o1)N1CCOCC1 | -9.91
28 | NS(=O)(=O)c1ccc(CCNC(=O)COC(=O)CCc2ccccc2)cc1 | 14.8
29 | Cc1cccc(NC(=O)CN2C(=O)N/C(=C\c3ccccc3OCc3ccc(C(=O)O)cc3)C2=O)c1 | 18.4
30 | CCc1ccccc1NC(=O)CNC(=O)c1cc(C2CC2)nc2c1cnn2C(C)C | -13.8
31 | O=c1n(S(=O)(=O)c2cccc3cccnc23)c2ccccc2n1S(=O)(=O)c1cccc2cccnc12 | 11.5
32 | Cc1cc(NC(=O)CSC2=NS(=O)(=O)c3cc(Cl)ccc3N2)no1 | 18.5
33 | O=C(Nc1ccon1)c1cccc(Cl)c1 | 7.02
34 | CCOc1ccc(=O)n(-c2ccccc2)n1 | 5.75
35 | COc1ccc(-c2ccc(=O)n(Cc3ccccc3)n2)cc1 | -5.74
36 | O=C1Cc2ccccc2Sc2ccc(Cl)cc21 | 16
37 | O=C1N[C@@H](Cc2ccccc2)C(=O)N2[C@H]1C[C@]1(Br)c3ccccc3N(S(=O)(=O)c3ccc(F)cc3)[C@H]21 | -5.36
38 | COCC1=C(C(=O)OC)C(c2ccco2)n2ncnc2N1 (centres unmarked) | 18

Row | SMILES | hERG current change (%, negative = inhibition) at 10uM [%]
39 | CSCCC(=O)NC1CC(C)(C)Cc2c1cnn2-c1ccccc1C (centres unmarked) | -10.4
40 | CC(C)CN(CC(C)C)c1ccc(/C=N/n2cnnc2)cc1[N+](=O)[O-] | -21.6
41 | CCOc1ccc(CCNC(=O)COC(=O)CCC(=O)c2cccs2)cc1OCC | -17.6
42 | O=C(O)CCc1ccc(-c2ccccc2)n1Cc1ccco1 | 2.33
43 | Cl.O=C(CS(=O)CC(=O)Nc1cnc2ccccc2c1)Nc1ccc(Cl)cc1 (centres unmarked) | -10.5
44 | O=C(Nc1ccccc1-c1ccccc1)C(c1ccccc1)c1ccccc1 | 10.4
45 | Cc1cc(C)nc(S/C=C/C(=O)c2ccccc2F)n1 | 5.02
46 | O=C(c1ccc(Br)o1)N1CCN(c2ccccc2F)CC1 | -4.94
47 | COc1ccc(/C=N/n2cnc3scc(-c4cccs4)c3c2=O)cc1OC | -2.04
48 | CCOc1ccc2nc(NCCO)[nH]c2c1 | 5.38
49 | COc1ccc(NC(=S)N2C3CCC2CC(NC(=O)NC24CC5CC(CC(C5)C2)C4)C3)c(OC)c1 (centres unmarked) | 6.69
50 | CCCN1Cc2cccc(C(=O)NCc3ccccc3)c2C1=O | -34.9
51 | COc1ccccc1C(CC(=O)Nc1ccc(C)c(C)c1)c1ccc(OC(C)C)cc1 (centres unmarked) | 10.2
52 | CN(C)S(=O)(=O)c1ccc(N2CCCC2)c(C(=O)NNC(=O)COc2ccccc2Cl)c1 | -30.3
53 | COc1ccc(CN(CC2CCC(C(=O)O)CC2)C(=S)Nc2cc(C)cc(C)c2)cc1 (centres unmarked) | 19.6
54 | N#CCCN(C(=O)COC(=O)c1ccc2c(c1)OCO2)c1ccccc1 | -17
55 | Cc1cccc(C)c1NC(=O)CN(C)C(=O)CN1C(=O)NC(C)(C)C1=O | 5.63
56 | COc1cccc(CNc2nc3ccc(C)cc3n3cnnc23)c1 | 4.33
